# Data published in article PMC12136788.
# This is one part of the list.
# B1: chr10:126015758:126015859:-|3pUTR|ENSG00000148848|msi1|total|mutant (ssRNA)
# RNA: GGGAGUUCUACAGUCCGACGAUCAAAUACUCAGAUAAGGUAAAAUGCCAUGAUGCCUCUGUCUUCUGGACUGGUUUUCACAUCCGAAGACAAUUGACAACAGUUACAUAAUUCACUCUGAGUGUUUUAUGAGAAAGCCUUCUUCAACAGAGGAUUGAGCAUCA
# B2: chr8:35759345:35759454:+|CDS|ENSG00000156687|unk|total|mutant (ssRNA)
# RNA: GGGAGUUCUACAGUCCGACGAUCCAUCAAGGUGGACAGCUCCUGGAAGAACCAAAAUUGCUGCAUUUCAAAGGGAAUACCUUCCGUCUUCAGAUUUCUGUCCUUGAUAUUCCCCCAUUCCUCUGGAGAAUUAAACCAUUCACUCAACAGAGGAUUGAGCAUCA
# B3: chr1:9614578:9614679:+|3pUTR|ENSG00000188807|msi1|total|mutant (ssRNA)
# RNA: GGGAGUUCUACAGUCCGACGAUCUCCAGCUGCCAGCAAUGGUUCCAACUCGGAGGCAGCGCCUCUUGGUCCCCAUUUCUGUACCGCAGGCGUGUGUGUGUGUGUCGAGGUUUUUUAUUUUUUGCUUAAUCAAACUCCAUUCCCCAACAGAGGAUUGAGCAUCA
# B4: chr7:116918052:116918157:+|3pUTR|ENSG00000198898|unk|FALSE|unique (ssRNA)
# RNA: GGGAGUUCUACAGUCCGACGAUCUUUUCAUUUUGUUUGUUCUAAGAGGAUUGAAAAUCAGUUUAGUUUAAAUGUCUUUCUGUUAGGCCUUUCUUUCUUACAAUGAAGAGAUGAUUCUUCUAGUUUAUGGUUAAAAGUUUUUGACAACAGAGGAUUGAGCAUCA
# B5: chr9:88129304:88129631:-|three_prime_utr|ENSG00000177910|control|control|control (ssRNA)
# RNA: GGGAGUUCUACAGUCCGACGAUCGACCAAGGCACUGUCUUUUUCAGGGAGGUAUCUAAUUUGGUCAGUCACAAAUUCCUUUUUAGCCUUCCCUAGAGAAAAACAAGUCACCAAGAAAAAAUUCACUCUAUGUAGAGGAAAAGUCAACAGAGGAUUGAGCAUCA
# B6: chr12:50748518:50748596:+|3pUTR|ENSG00000066084|msi1_unk|total|mutant (ssRNA)
# RNA: GGGAGUUCUACAGUCCGACGAUCUCAAAUUCAAACUACAGUACUGUGUAAUUAUGUAUAAAGUUUUUUUAUUUAUUUGAAGUCCGACCCGAUAUACGUUUUUAAAUUUAACAUCUGGCUGGACAGUGUUCUAUUAACUCAUUGCAACAGAGGAUUGAGCAUCA
# B7: chr11:43405833:43405939:+|CDS|ENSG00000052841|unk|total|mutant (ssRNA)
# RNA: GGGAGUUCUACAGUCCGACGAUCGGCCCAAACCCCUGACUGUUCCAUAACUGACUUCAGAAAAAGCCACACUCUGUCCUACUCCGUCAAAGAAUCCGAGGUUCGCAUGGAUCUGAAAGCCAAAAUGCCAGAUGACCAUGCACGCAACAGAGGAUUGAGCAUCA
# B8: chr2:32415736:32415837:+|CDS|ENSG00000115760|unk|FALSE|unique (ssRNA)
# RNA: GGGAGUUCUACAGUCCGACGAUCGCAGAGGAAUGUUAGUGGUGGAUAUUUAGUGCUUUAUAAAAUGAAUUAUGCCACUCGGAUAGUGACUUUAGAAGAGGAGCCAAUAAAAAUACAACAUAUCAAAGAUCCCCAGGACACAAUCAACAGAGGAUUGAGCAUCA
# B9: chr12:109450965:109451066:-|3pUTR|ENSG00000110906|msi1|FALSE|unique (ssRNA)
# RNA: GGGAGUUCUACAGUCCGACGAUCGCCCGGGCACAAUCCCCACUGCUUUGCUAGACGUGCUUUCUGCCAUGUGGCUUUGGGCCUAGAGCUUGUUGAUAAUUGCAGCUUGUGGCAGUGGAAAUAUGGCUGAAUGAGCGUCUAAAUCAACAGAGGAUUGAGCAUCA
# B10: ENSG00000182118:stop:overlap|stop_codon|ENSG00000182118|stop_codon|NA|stop_codon (ssRNA)
# RNA: GGGAGUUCUACAGUCCGACGAUCGGGACUUGUCACUGCCUGUCUCCUCCCUCUCCAGCAGCGACUGGAUUCUGGAGUCCAUCUAGAGGGUCUUGGGAGGGAUGUGACUGUUGGGAAGCCCUUCCUACUGGACACGCUGUCAUCCAACAGAGGAUUGAGCAUCA
# B11: chr22:35606763:35607296:-|three_prime_utr|ENSG00000198125|control|control|control (ssRNA)
# RNA: GGGAGUUCUACAGUCCGACGAUCGCUCCCACCCCCACCCAUCUGGGCCCCGGGUUCAAGAGAGAGCGGGGUCUGAUCUCGUGUAGCCAUAUAGAGUUUGCUUCUGAGUGUCUGCUUUGUUUAGUAGAGGUGGGCAGGAGGAGCCAACAGAGGAUUGAGCAUCA
# B12: chr2:216675988:216676089:-|3pUTR|ENSG00000115461|msi1|total|mutant (ssRNA)
# RNA: GGGAGUUCUACAGUCCGACGAUCACUAAAAUGCAUUCCAUUCCUCUGAAAGCAAAACAAAUUCAUAAUUGAGUGAUAUUAAACCGAGAGGUUUUCGGAAGCAGAUCUGUGAAUAUGAAAUACAUGUGCAUAUUUCAUUCCCCACAACAGAGGAUUGAGCAUCA
# B13: chr5:37007335:37007444:+|CDS|ENSG00000164190|unk|total|mutant (ssRNA)
# RNA: GGGAGUUCUACAGUCCGACGAUCAGGCUUAUUAAGUUCAAAAGCAAAACGGGCUAAAUGUUCUACCCAUAAGCAGAGAGUAACCGUAAUGCUUUAUAACAAAGUUUGUGACAUUGUCCGCAGCUUAUCAGAAUUGCCCGAGAUCAACAGAGGAUUGAGCAUCA
# B14: ENSG00000198589:be:win_9451|3pUTR|ENSG00000198589|bound_else_gene|NA|bound_elsewhere_windowed (ssRNA)
# RNA: GGGAGUUCUACAGUCCGACGAUCUUAAACUAUCAUCUCCACCUUCCUUUUGAUUAGCAAUUUGUACUAAGAAACGAAACAAUGUUAUUUGGUGGUGUAUAAUUCUACUUUUCUAGUAGAUUACUGUGUGGAAUUCUGUGAAAACAACAGAGGAUUGAGCAUCA
# B15: chr5:72990507:72990614:+|CDS|ENSG00000157107|unk|FALSE|unique (ssRNA)
# RNA: GGGAGUUCUACAGUCCGACGAUCGUAUGGGAUGUAUUCAAAACAUCUACAGAGAAAUUAGCAAAUUGUCACUUGGAUCUUGUUAGAAAAUUACAAGAAUUAAUAAAGGAAGUUCAGAAGUAUGGAGAAGAACAAGUAAAGUCUCAACAGAGGAUUGAGCAUCA
# B16: ENSG00000198589:be:win_5001|CDS|ENSG00000198589|bound_else_gene|NA|bound_elsewhere_windowed (ssRNA)
# RNA: GGGAGUUCUACAGUCCGACGAUCACCGUCAGUUUCAGUUUCAAAAAACGUCAAUGUGAAAGACAUUCUCCGAAGCUUGGUUAACAUACCAGCAGAUGGAGUCACAGUGGAUCCUGCCCUUCUGCCACCAGCCUGCCUUGGAGCCAACAGAGGAUUGAGCAUCA
# B17: ENSG00000107863:be:win_701|CDS|ENSG00000107863|bound_else_gene|NA|bound_elsewhere_windowed (ssRNA)
# RNA: GGGAGUUCUACAGUCCGACGAUCCACCAGUACUGACACAACCUGGUAGGGCCUAUAGAAUGGAAAUACAAGUGCCUCCAUCACCAACAGAUGUUGCAAAAUCAAACACAGCAGUGUGUGUUUGCAAUGAAAGUGUAAGGACUGCAACAGAGGAUUGAGCAUCA
# B18: chr7:40094668:40094770:+|CDS|ENSG00000065883|unk|total|mutant (ssRNA)
# RNA: GGGAGUUCUACAGUCCGACGAUCGGAUAUGGAGACAUUUACCUCAAUGCUGGUCCCAUGUUGUUCCGUGGAGACAAGGACCACCGAUUUGAAUACCGCCAUGGUCCUAUUGCAGUCCUGGCAAACAGCAGUGACCCUUCCACGCAACAGAGGAUUGAGCAUCA
# B19: chr13:45969211:45969312:-|CDS|ENSG00000123200|unk|FALSE|unique (ssRNA)
# RNA: GGGAGUUCUACAGUCCGACGAUCGUCCCUGACCGUACAGAGGUGACAGAAGCAGAGCAUACUGCCACCGCCACGACUCCUGGUAGUACCCCUUCUCCUCUAUCUUCUCUUCUUCCUCCUCCACCGCCUGUGGCUACUGCCACUCAACAGAGGAUUGAGCAUCA
# B20: chr1:235113809:235113910:-|CDS|ENSG00000173726|msi1_unk|FALSE|overlapping (ssRNA)
# RNA: GGGAGUUCUACAGUCCGACGAUCAGGCUUUUCAGGUUACAUGUAAUUUUAUGUAAAUCUUACAGGUGAAUAUGAGAAGGGCGUAGACCAUCUGACAAAUGCAAUUGCUGUGUGUGGACAGCCACAGCAGUUACUGCAGGUCUUCAACAGAGGAUUGAGCAUCA
# B21: chr13:32776882:32776983:+|3pUTR|ENSG00000083642|unk|total|mutant (ssRNA)
# RNA: GGGAGUUCUACAGUCCGACGAUCAAAGUGUUUUGAAUUGUGUCUUAAUCUCUCCAUAUUCAACUAUUCUUCAUUUACAACAACCGUGACACCAGUAAUUAUGAGAGGCUGUCAUAUAUCAAAGCAGCUCAGGUGGGAUCAACACAACAGAGGAUUGAGCAUCA
# B22: chr3:23980279:23980388:+|3pUTR|ENSG00000174738|unk|total|mutant (ssRNA)
# RNA: GGGAGUUCUACAGUCCGACGAUCUUUUUCUUUUCCAAUAUAAAGUUUGCUGAAUGUACAAGAAGAGUUUAUCACUCCGGAUACCGAAUUUUUUCCGGGGUUGGGGGAGGGGAUCUGUCCGGAAACUGUUACCUAUAAACAAAGCAACAGAGGAUUGAGCAUCA
# Target: MSI1 full-length (mouse, UniProt Q61474 1-362)
# Sequence of UniProt Q61474 (Q61474 whole entry): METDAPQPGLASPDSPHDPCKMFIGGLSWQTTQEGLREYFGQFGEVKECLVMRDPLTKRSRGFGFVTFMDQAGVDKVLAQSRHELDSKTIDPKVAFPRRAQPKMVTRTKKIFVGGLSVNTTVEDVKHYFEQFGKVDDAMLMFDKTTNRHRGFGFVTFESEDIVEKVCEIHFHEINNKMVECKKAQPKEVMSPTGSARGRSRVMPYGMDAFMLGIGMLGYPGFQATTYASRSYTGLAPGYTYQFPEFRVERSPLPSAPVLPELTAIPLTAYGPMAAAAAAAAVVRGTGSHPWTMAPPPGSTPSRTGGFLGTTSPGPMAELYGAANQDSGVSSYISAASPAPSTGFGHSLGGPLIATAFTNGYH
# Test: nsRBNS (natural sequence RNA bind-n-seq); RBNS binding buffer (assumed for nsRBNS): 25 mM Tris pH 7.5, 150 mM KCl, 3 mM MgCl2, 0.01% Triton X-100, 500 ug/ml BSA, 20 U/ml SUPERase-In, 4 C; UNK is unkempt and MSI1 is Musashi-1; names of the RNAs are library labels; protein concentration not given here; high values mean tight binding
row,Binder,binding signal
1,B1,0.199 enrichment R
2,B2,0.284 enrichment R
3,B3,0.582 enrichment R
4,B4,11.9 enrichment R
5,B5,0.228 enrichment R
6,B6,1.59 enrichment R
7,B7,0.275 enrichment R
8,B8,2.04 enrichment R
9,B9,0.433 enrichment R
10,B10,0.542 enrichment R
11,B11,1.64 enrichment R
12,B12,0.271 enrichment R
13,B13,0.305 enrichment R
14,B14,1.55 enrichment R
15,B15,9.04 enrichment R
16,B16,0.331 enrichment R
17,B17,0.502 enrichment R
18,B18,0.291 enrichment R
19,B19,1.07 enrichment R
20,B20,0.3 enrichment R
21,B21,0.958 enrichment R
22,B22,0.53 enrichment R
